Laboratory results reported in PubChem BioAssay AID504339 (National Center for Advancing Translational Sciences (NCATS), 2011).
Several values for one entry are separate records, joined by “and”; a condition that tells them apart may be missing. Equal entries are not always repeated. In all, about 390,000 compounds went through this assay and about 17,000 (4.4%) were called active. The inconclusive results got no clear call from the source; some entries with a clear call stand among them for comparison. The call rests on the fitted dose curve; in most records, active means well fitted inhibition curve with a large enough effect; inconclusive means small, poorly fitted or top-dose-only effect; inactive means no such curve, though single readings can be large or run the other way. Potencies beside an inconclusive call are fits to weak or partial responses and may not hold up.
Further: nearly all actives have a fitted effect of over 50% in size.
On the % scale 0 is the no-effect control and ±100 the full control effect; potency means the concentration at half of the fitted maximal effect; tags describe the fitted curve by direction and shape.

What follows are compounds tested against Lysine-specific demethylase 4A (Homo sapiens) (UniProt O75164) (assay: qHTS Assay for Inhibitors of JMJD2A-Tudor Domain). Settings: AlphaScreen JMJD2A-Tudor / H3K4me3 peptide binding; activity change, negative = inhibition: at 114 µM (top of the series).
UniProt O75164, sequence (O75164 whole entry, looked up, the tested form may be a part): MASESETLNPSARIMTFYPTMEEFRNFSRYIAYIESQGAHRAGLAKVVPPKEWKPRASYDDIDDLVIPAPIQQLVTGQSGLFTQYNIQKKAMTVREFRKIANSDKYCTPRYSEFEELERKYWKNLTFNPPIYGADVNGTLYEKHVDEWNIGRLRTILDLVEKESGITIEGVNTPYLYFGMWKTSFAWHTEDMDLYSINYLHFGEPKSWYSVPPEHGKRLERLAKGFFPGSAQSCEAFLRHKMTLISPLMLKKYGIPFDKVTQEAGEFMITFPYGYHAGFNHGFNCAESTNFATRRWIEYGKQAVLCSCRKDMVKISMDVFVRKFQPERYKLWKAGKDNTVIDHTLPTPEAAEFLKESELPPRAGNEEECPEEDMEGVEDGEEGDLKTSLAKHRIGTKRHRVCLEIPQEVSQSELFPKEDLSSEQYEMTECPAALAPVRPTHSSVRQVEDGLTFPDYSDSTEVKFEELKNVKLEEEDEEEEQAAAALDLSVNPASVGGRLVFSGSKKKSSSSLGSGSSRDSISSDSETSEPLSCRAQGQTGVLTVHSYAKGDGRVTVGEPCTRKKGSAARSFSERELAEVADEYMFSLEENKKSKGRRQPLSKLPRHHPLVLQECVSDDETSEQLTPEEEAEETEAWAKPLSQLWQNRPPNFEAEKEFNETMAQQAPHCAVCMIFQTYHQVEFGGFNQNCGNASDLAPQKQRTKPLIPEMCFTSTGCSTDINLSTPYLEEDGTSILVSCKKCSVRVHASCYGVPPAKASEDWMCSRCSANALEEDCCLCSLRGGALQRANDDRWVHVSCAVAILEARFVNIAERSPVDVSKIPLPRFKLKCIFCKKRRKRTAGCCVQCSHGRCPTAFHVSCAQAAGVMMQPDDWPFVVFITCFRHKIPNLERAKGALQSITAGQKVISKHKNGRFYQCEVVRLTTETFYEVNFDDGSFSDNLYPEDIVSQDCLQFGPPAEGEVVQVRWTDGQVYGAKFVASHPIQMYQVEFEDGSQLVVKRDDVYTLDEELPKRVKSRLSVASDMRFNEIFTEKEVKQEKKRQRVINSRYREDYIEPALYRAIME
`CCc1ccc2c(c1)C(C)=CC(C)(C)N2` was tested, and the Potency was inconclusive: 28.2 µM [inhibitor, full curve].
In the case of `CC(=O)c1cccc(OCC(O)CNCCc2ccc(Cl)cc2)c1` (stereo unspecified), the Potency is reported as inconclusive: 79.4 µM [inhibitor, partial curve].
`CC[n+]1ccc(/C=C/c2ccc(N(C)C)cc2)c2ccccc21` was tested, and the Potency was active: 22.4 µM.
For `O=C1c2ccccc2C(Nc2ccc3c(c2)OCCO3)N1Cc1ccc2c(c1)OCO2` (stereo unspecified), the Potency was active: 39.8 µM.
With `Cc1cc(Cl)cc(C)c1OCCn1ccnc1` the “activity change, negative = inhibition” value was inactive: -26.8%.
`O=C(CSc1n[nH]c(-c2ccccn2)n1)Nc1ccc(F)cc1` was tested, and the Potency was active: 5.62 µM.
For `O=c1cc(CO)oc(CN2CCN(Cc3ccccc3)CC2)c1O`, the Potency was inconclusive: 89.1 µM [inhibitor, single point].
For `C[n+]1cn(/N=C/c2ccccc2)c2ccccc21`, the Potency was inconclusive: 89.1 µM [inhibitor, single point].
In the case of `O=C(N/N=C\c1ccc(F)cc1)c1csnn1`, the “activity change, negative = inhibition” value is reported as inactive: -18.6%.
With `O=C1C(O)=C(O)C(=O)c2ccccc21` the Potency was active: 56.2 µM.
For `CCOC(=O)CSc1nnc(NC(=O)NC(C)C)s1`, the “activity change, negative = inhibition” value was inactive: -9.74%.
With `Cc1ccc(NS(=O)(=O)c2ccc(-c3cnc(C4CC4)o3)cc2)c(C)c1` the Potency was inconclusive: 20 µM [inhibitor, partial curve].
With `Cc1cc(C)nc(SCC(=O)N/N=C/c2cc(C)n(-c3ccccc3C)c2C)n1` the Potency was inconclusive: 35.5 µM [inhibitor, full curve].
With `COc1ccc(-n2c(Cc3cccn3C)nnc2SCC(=O)Nc2ccccc2F)cc1` the Potency was inconclusive: 56.2 µM [inhibitor, partial curve].
With `O=C(O)CCc1ccc(-c2ccc(Cl)cc2)n1CC(=O)O` the Potency was inconclusive: 63.1 µM [inhibitor, partial curve, poor fit].
In the case of `C/C(Cn1nnc([N+](=O)[O-])n1)=N\NC(=O)c1ccc(O)cc1O`, the Potency is reported as inconclusive: 28.2 µM [inhibitor, single point].
`O=[N+]([O-])c1ccccc1S(=O)(=O)N1CCN(Cc2ccccc2)CC1` was tested, and the Potency was inconclusive: 89.1 µM [inhibitor, partial curve].
In the case of `CCC(=O)Nc1cccc(NC(=O)CSc2nnnn2C)c1`, the “activity change, negative = inhibition” value is reported as inactive: -8.96%.
In the case of `Cc1ccc(NC(=O)C2CCN(S(=O)(=O)c3c(C)noc3C)CC2)cc1`, the “activity change, negative = inhibition” value is reported as inactive: -13%.
`O=C(NCCN1CCN(c2ccccc2)CC1)Nc1cccc(Br)c1` was tested, and the Potency was inconclusive: 44.7 µM [inhibitor, partial curve] and inconclusive: 56.2 µM [inhibitor, partial curve].
`O=C1OCCN1C(=O)[C@H]1[C@H](c2ccc([N+](=O)[O-])cc2)C(c2ccc(F)cc2)=NN1c1ccc(Br)cc1` was tested, and the Potency was inconclusive: 44.7 µM [inhibitor, partial curve].
